{"source": "paper PMC9911399", "about": "“Two distinct binding modes provide the RNA-binding protein RbFox with extraordinary sequence specificity”", "binders": {"B1": {"name": "UUGGUAA (DNA:RNA)", "RNA": "GGGAGACCGGAAUUCAGAUUGUCCUUGGUAAUUAAAUCCCGUCGUAGCCACCA", "DNA 1": "CAATCTGAATTCCGGTCTCCC", "DNA 2": "TGGTGGCTACGACGGGATT"}, "B2": {"name": "AUCAGGG (DNA:RNA)", "RNA": "B1 RNA with U25A, G27C, G28A, U29G, A30G, A31G", "DNA 1": "CAATCTGAATTCCGGTCTCCC", "DNA 2": "TGGTGGCTACGACGGGATT"}, "B3": {"name": "CUCACAU (DNA:RNA)", "RNA": "B1 RNA with U25C, G27C, G28A, U29C, A31U", "DNA 1": "CAATCTGAATTCCGGTCTCCC", "DNA 2": "TGGTGGCTACGACGGGATT"}, "B4": {"name": "CCUGUAU (DNA:RNA)", "RNA": "B1 RNA with U25C, U26C, G27U, A31U", "DNA 1": "CAATCTGAATTCCGGTCTCCC", "DNA 2": "TGGTGGCTACGACGGGATT"}, "B5": {"name": "CUAGGGG (DNA:RNA)", "RNA": "B1 RNA with U25C, G27A, U29G, A30G, A31G", "DNA 1": "CAATCTGAATTCCGGTCTCCC", "DNA 2": "TGGTGGCTACGACGGGATT"}, "B6": {"name": "UUACCUU (DNA:RNA)", "RNA": "B1 RNA with G27A, G28C, U29C, A30U, A31U", "DNA 1": "CAATCTGAATTCCGGTCTCCC", "DNA 2": "TGGTGGCTACGACGGGATT"}, "B7": {"name": "UCUUCGA (DNA:RNA)", "RNA": "B1 RNA with U26C, G27U, G28U, U29C, A30G", "DNA 1": "CAATCTGAATTCCGGTCTCCC", "DNA 2": "TGGTGGCTACGACGGGATT"}, "B8": {"name": "UGCGCAA (DNA:RNA)", "RNA": "B1 RNA with U26G, G27C, U29C", "DNA 1": "CAATCTGAATTCCGGTCTCCC", "DNA 2": "TGGTGGCTACGACGGGATT"}, "B9": {"name": "CGUACUU (DNA:RNA)", "RNA": "GGGAGACCGGAAUUCAGAUUGUCCCGUACUUUUAAAUCCCGUCGUAGCCACCA", "DNA 1": "CAATCTGAATTCCGGTCTCCC", "DNA 2": "TGGTGGCTACGACGGGATT"}, "B10": {"name": "CGACCAU (DNA:RNA)", "RNA": "B9 RNA with U27A, A28C, U30A", "DNA 1": "CAATCTGAATTCCGGTCTCCC", "DNA 2": "TGGTGGCTACGACGGGATT"}, "B11": {"name": "AACCAUU (DNA:RNA)", "RNA": "B9 RNA with C25A, G26A, U27C, A28C, C29A", "DNA 1": "CAATCTGAATTCCGGTCTCCC", "DNA 2": "TGGTGGCTACGACGGGATT"}, "B12": {"name": "CCAGUUC (DNA:RNA)", "RNA": "B9 RNA with G26C, U27A, A28G, C29U, U31C", "DNA 1": "CAATCTGAATTCCGGTCTCCC", "DNA 2": "TGGTGGCTACGACGGGATT"}, "B13": {"name": "UCAGGGG (DNA:RNA)", "RNA": "B1 RNA with U26C, G27A, U29G, A30G, A31G", "DNA 1": "CAATCTGAATTCCGGTCTCCC", "DNA 2": "TGGTGGCTACGACGGGATT"}, "B14": {"name": "AAUAACC (DNA:RNA)", "RNA": "B9 RNA with C25A, G26A, C29A, U30C, U31C", "DNA 1": "CAATCTGAATTCCGGTCTCCC", "DNA 2": "TGGTGGCTACGACGGGATT"}, "B15": {"name": "AUAGAAU (DNA:RNA)", "RNA": "B1 RNA with U25A, G27A, U29A, A31U", "DNA 1": "CAATCTGAATTCCGGTCTCCC", "DNA 2": "TGGTGGCTACGACGGGATT"}, "B16": {"name": "GAGUGGA (DNA:RNA)", "RNA": "B1 RNA with U25G, U26A, G28U, U29G, A30G", "DNA 1": "CAATCTGAATTCCGGTCTCCC", "DNA 2": "TGGTGGCTACGACGGGATT"}, "B17": {"name": "AUGUGCC (DNA:RNA)", "RNA": "B1 RNA with U25A, G28U, U29G, A30C, A31C", "DNA 1": "CAATCTGAATTCCGGTCTCCC", "DNA 2": "TGGTGGCTACGACGGGATT"}, "B18": {"name": "CGGAGCU (DNA:RNA)", "RNA": "B9 RNA with U27G, C29G, U30C", "DNA 1": "CAATCTGAATTCCGGTCTCCC", "DNA 2": "TGGTGGCTACGACGGGATT"}, "B19": {"name": "GCUGCGU (DNA:RNA)", "RNA": "B9 RNA with C25G, G26C, A28G, U30G", "DNA 1": "CAATCTGAATTCCGGTCTCCC", "DNA 2": "TGGTGGCTACGACGGGATT"}, "B20": {"name": "GAAAGCC (DNA:RNA)", "RNA": "B9 RNA with C25G, G26A, U27A, C29G, U30C, U31C", "DNA 1": "CAATCTGAATTCCGGTCTCCC", "DNA 2": "TGGTGGCTACGACGGGATT"}}, "note": "Positions count from the first letter of the chain named. Some of the results follow."}
{"biological_target": "T1, RBFOX1 RRM (Homo sapiens, UniProt Q9NWB1 109-208)", "T1 sequence": "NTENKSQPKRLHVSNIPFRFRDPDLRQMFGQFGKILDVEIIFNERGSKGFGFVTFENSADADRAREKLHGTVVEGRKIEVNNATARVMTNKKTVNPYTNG", "assay": "EMSA; HiTS-Eq, 1 nM pool, 10 min; buffer printed only for the single-RNA assays: 10 mM Tris pH 7.5, 150 mM NaCl, 3.4 mM EDTA, 0.001% NP-40, 30 C", "conditions": "tags: His6 N-terminal (pET28a); label: 5' 32P", "in_short": "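A pool of RNA with 7 randomized nucleotides, 5′-radiolabelled and with DNA-annealed flanks, was equilibrated at 1 nM for 10 min in 50 µL with purified RbFox RRM, wild type or mutant, across increasing protein concentrations. Free RNA was separated by 8% native PAGE, excised, reverse-transcribed, barcoded by PCR and sequenced. Relative association constants were obtained from read-count changes of each RNA species versus the control reaction and normalised to the cognate motif.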"}
{"binder": "B1", "binding signal": "0.0207 KA relative to UGCAUGU"}
{"binder": "B2", "binding signal": "0.00469 KA relative to UGCAUGU"}
{"binder": "B3", "binding signal": "0.00243 KA relative to UGCAUGU"}
{"binder": "B4", "binding signal": "0.00795 KA relative to UGCAUGU"}
{"binder": "B5", "binding signal": "0.00429 KA relative to UGCAUGU"}
{"binder": "B6", "binding signal": "0.00126 KA relative to UGCAUGU"}
{"binder": "B7", "binding signal": "0.0117 KA relative to UGCAUGU"}
{"binder": "B8", "binding signal": "0.0152 KA relative to UGCAUGU"}
{"binder": "B9", "binding signal": "0.0053 KA relative to UGCAUGU"}
{"binder": "B10", "binding signal": "0.00205 KA relative to UGCAUGU"}
{"binder": "B11", "binding signal": "0.00138 KA relative to UGCAUGU"}
{"binder": "B12", "binding signal": "0.0137 KA relative to UGCAUGU"}
{"binder": "B13", "binding signal": "0.00686 KA relative to UGCAUGU"}
{"binder": "B14", "binding signal": "0.00049 KA relative to UGCAUGU"}
{"binder": "B15", "binding signal": "0.00326 KA relative to UGCAUGU"}
{"binder": "B16", "binding signal": "0.00781 KA relative to UGCAUGU"}
{"binder": "B17", "binding signal": "0.0173 KA relative to UGCAUGU"}
{"binder": "B18", "binding signal": "0.0245 KA relative to UGCAUGU"}
{"binder": "B19", "binding signal": "0.0224 KA relative to UGCAUGU"}
{"binder": "B20", "binding signal": "0.00698 KA relative to UGCAUGU"}
